In the supplement of paper PMC12632987:
Whole data set: some 4,500 sequences, median “median log2 fold change of GCK-ALFA target abundance (FLAG IP / Myc IP barcode read proportion)” near 0.078, cut for the lowest 2% near -0.6. The list shows a part of the results.

B1: GBRAP_74_6501 (protein)
chain: AAADEAAAEEFAELLRRGASYEELMAHIAEMNVAALDLAVIKATEEARENAEKLTEEQIDALAELADRVFAESENPEAIAAAGELVKILYETEERRRAEE
B2: GBRAP_43_5744 (protein)
chain: SEELVEGAVDFALLAAEDPAIPEETKLRALKAAAELMADEKVKATELALEAVRAFARRASEETVEELIKYLKELAEKNPEIKEGFDKLIKAAEEEREKRR
B3: GBRAP_52_5865 (protein)
chain: MEERLREALLRMLALVRAGDEEGARALARELVASISEEEVEVLIRVAAALFAELAPADLDAAWRLMEIIAEALEEAGFPEELVTLFEGEVGSAIAKREAA
B4: GBRAP_52_6277 (protein)
chain: MEKEAEELANEFLETTLTKSREEVKEFAKKIVETKSQELIAKMLKIVVEKSKELNLEEVEKILEGFLILEEELDEAGKDTVPAEDAAAEIAALAMKKREA
B5: GBRAP_128_3300 (protein)
chain: MDPALRAEVEALVETIRTGDPAARRAAAEALAALMGSVNDEDAEAIADIIEAAIPELSAEALEILADVLDAARPQLTPEKAALAADVASAALLAAEELAE
B6: GBRAP_57_6452 (protein)
chain: MSKLEKAEKLAEEAKKAVLEEGDKEKALEYIRKMLELLSKESLLDVALIVDPSARRDDSKEELIEKIVEKAKEYLEKGDKEGVLDIIDLILGQQEMEELE
B7: GBRAP_139_3701 (protein)
chain: MSLEEKIARARELTRRTEEDPEGSLEALVELLGSLSEEEAERATEAAAEVWAELPLDRFEELADRLLELAREKIEDEDKVDIIEGVLNGALARHAYAEEL
B8: GBRAP_78_6687 (protein)
chain: EIEEKLEKALEHLGKAAKILAKMNTEEALDILGVVVDAASTVEEALFGEADLEELEKALKELEKALKEVKKIDSPEAKEAAEHLEKAIEALKEAIKLMKE
B9: GBRAP_78_6580 (protein)
chain: EIEEEIDKAKEYLSEAAKLAKKFPEEIQNELLYLIVEALSSLLESEENGFDLEELEKALKYVEEAIKLVEKLDKEEAKKLKKELEKAKEHLEKAIKLKKK
B10: GBRAP_184_5130 (protein)
chain: TLVRRAVEAETAEEAKAAAEAVVAEAAAAGARLDLAVFAKNMSVEEIKELIKYLGALKKAHPQVTITLDVLDELSEEEIDKLVKAADENGVRLVLAISDE
B11: GBRAP_117_2600 (protein)
chain: SEAEKKVKELAKELVELAKEALEKKKTLSEEEAKKLEEETLKKMTELVKEMLSLTSEEEVQEFIAEELKDLSPETRVQIWILFYEALAEAEDEREKEEEE
B12: GBRAP_26_5426 (protein)
chain: IEEIFKEMIDEIEAAADELLDPELAAALRAIAATLAEEVLERVEEENLSVEEIKEELEKMVEELVEEAKELGVDEEKIEKLEKAARKAAEKAVERIEKEK
B13: GBRAP_184_5094 (protein)
chain: KLLEELIEAKTPEEAKEKLKKVLKKAAEQKADLNILVDVEGLDVETAIELLDLVGAALKAGKVKNVTVGFAEEFTEEEIDKILERADELGVKVTVAIKEE
B14: GBRAP_11_2762 (protein)
chain: MKEKYERLAELAERAAELVDRLLAEGVDDAELLAELERLLRELREETKKIGDKALEKDVEIAEELFRALQADPANAEAYARELRAQLRVLAGQYLLLAEE
B15: GBRAP_128_3597 (protein)
chain: SVEEVREWTRATLEEMKTADAAERRALAQALMDRFLTLSREEQEALVETIEELAPELSAEDLEILADAARAARPRADPYAANLLAGLEVDLLNEALEKEE
B16: GBRAP_11_2701 (protein)
chain: KKEELKKAAELAEKLAETLERLLEEGVDNEELRAEAEKLLKELTKLVEKYGDKALQKLAKIIKELWEEALADPENAEAYLREMLAAARVLAGQFLLEIEE
B17: GBRAP_128_3387 (protein)
chain: SQEELVEEAKELIEEIVEADVEEARELARELMELLGKLSLEDAEKVVEYLKEQFPKLTAEKLEVVADVLREQRPKFDPERQNLVADAEVEALNAAEEKEE
B18: GBRAP_52_6341 (protein)
chain: MEEEVERYAREIAAAVAAGDFDRAVALTREAARRFTREEVRRMMRLTAELMAAALPDDEDRVMEAAFKMADVIEEELGDEVLADDFEAYTARLLVERRQA
B19: GBRAP_11_2841 (protein)
chain: SKEKLEELAKRAEAIAKELAALIASGNPSQAQLQALKAKVEALLEEVKKHASKSSQKIAQIALDDINKAIADPEKQQEYLNNALAAVRVLAGDLLLEIEE
B20: GBRAP_52_6244 (protein)
chain: MEERLRKLAAELLALVRAGRLEEARKLAKRIAEELNEEELRLFIDEFAELARQARPEDVDAVWRAAEILAEALEEAGKPEILVDDLEARTARAVAEVLAR
B21: GBRAP_125_3051 (protein)
chain: ALEAAIEALAALARRLGLSEEEVEELAELARRHGVKGALIALLLAEGEEEAAELAAELSEEAVIAVLLELRAWLEAHPDATPEEVLARLLELLKAALAAE
B22: GBRAP_184_5356 (protein)
chain: MTREVVIEADTIEEAIAKLRAAAAEAAAAGADLAVLIKVPINTVEDAEALIAALGEIQAAGVRIAVAGIEGVSNDEAIIDTLVDGAEAAGIRVVLALDEE
B23: GBRAP_150_3903 (protein)
chain: DLETLLILTSTAIDILEAILDGHYELLPHAVKVMKAALEEAENISEEVKELAKKALEHVEKALKLLKEGGKEEDIKAAVQKALELAEKLEEKIEKLIEEK
B24: GBRAP_184_5264 (protein)
chain: KVLERTVKAENVEELKAKLAEIRKEALATGADVIILLEVEELTEEMIDALFAQLKALRDAGYKGRITVGIDADLTEEMIDYVLKKADEAGVNVVVAISEE
B25: GBRAP_106_2556 (protein)
chain: ARAAALEAALAKARAAAAAERAATDAWLAAHRSELTPEEIEAIRTYTAKAAVGRLLRALVDAGLLTPEQARAIEREVLAQRGLDFEARLARAVALAREAA
B26: GBRAP_128_3336 (protein)
chain: MDEEKVKEIEELAEKIIEADDEEAKELAKKIAEKLVTLSLEEVEKAVEYLKKLLPKLSAEKLEILADVLEEKLPEFEPEKAEVVADLMVEALNLAEEKEE
B27: GBRAP_128_3598 (protein)
chain: SVEEVRKWTREQLEKMKEADEEERKEIAEELMARFLTLTPEEREAMVDTIKEEAPKLSEEDLEILADAARAARPLADAEAANLLADLEVELLNEAEEKEE
B28: GBRAP_11_2722 (protein)
chain: KKEELEKLAKRAEALAKEVAKLIKEGPDKEKIKKLQKEVEKLAEEAKKIGASEDVIKTLKIAAENLQKAIEDPENVEQHLKNAQAALRVAAGQLLLEAEE
B29: GBRAP_160_4535 (protein)
chain: SETLERFEKELRETAEEAIKLIKGETAEQRATIVDVEFGSFALELAEDPNASDEMVDVVLENRDKLVETILANPDLTDEELEELIRKTVEETIKELKKLF

molecular target: GABARAP, O95166; assay: median log2 fold change of GCK-ALFA target abundance (FLAG IP / Myc IP barcode read proportion) (log2 ratio); each designed protein is fused to an ALFA-tag nanobody in HEK293 cells to bring the named protein to FLAG-tagged glucokinase (GCK); Myc marks an untargeted standard; higher = target protein stabilised (more abundant); details: target protein: 3xFLAG-MCP-GCK-ALFA reporter; HEK293 landing pad (RPLP)
Sequence (O95166 whole entry, the tested form may be a part): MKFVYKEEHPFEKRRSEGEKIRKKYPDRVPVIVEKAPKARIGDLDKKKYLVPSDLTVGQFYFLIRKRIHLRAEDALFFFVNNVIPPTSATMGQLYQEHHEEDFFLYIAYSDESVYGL
Procedure, shortened: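 Sequencing of reverse-transcribed, amplified circular RNA barcodes from anti-FLAG and anti-Myc immunoprecipitates provided the readout for an ALFA-nanobody-fused binder library recombined into HEK293 landing-pad cells. Those cells were induced with 2 μg mL^−1 doxycycline, transfected with a plasmid expressing a FLAG-tagged target and a Myc-tagged standard, and lysed after 48 h. Target abundance is the per-binder median log2 ratio of FLAG to Myc barcode read proportions. Only barcodes at a proportion of ≥10^−7 in both replicates and binders with ≥3 barcodes per replicate were kept, with a 10^−6 pseudocount added before the two replicates were pooled.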

Point of comparison: B9, “median log2 fold change” value -0.0492. Against it:
- B1 — within 0.2 log units, 0.0485
- B2 — higher, 0.257
- B3 — within 0.2 log units, -0.0279
- B4 — higher, 0.236
- B5 — within 0.2 log units, -0.00271
- B6 — higher, 0.213
- B7 — within 0.2 log units, 0.00861
- B8 — within 0.2 log units, 0.0487
- B10 — within 0.2 log units, 0.0547
- B11 — higher, 0.362
- B12 — higher, 0.219
- B13 — within 0.2 log units, 0.105
- B14 — higher, 0.183
- B15 — within 0.2 log units, 0.119
- B16 — within 0.2 log units, -0.00754
- B17 — higher, 0.209
- B18 — within 0.2 log units, -0.169
- B19 — higher, 0.254
- B20 — within 0.2 log units, 0.0864
- B21 — within 0.2 log units, -0.101
- B22 — within 0.2 log units, -0.249
- B23 — within 0.2 log units, -0.0628
- B24 — within 0.2 log units, -0.00736
- B25 — lower, -0.476
- B26 — higher, 0.314
- B27 — higher, 0.155
- B28 — higher, 0.218
- B29 — within 0.2 log units, 0.0259
